{"source": "paper PMC4336329", "about": "(PLoS ONE, 2015)", "note": "Hit rate of the full screen: of about 310,000 compounds, about 14,000 (4.5%) showed an effect of 50% or more. Effects have a minus sign here. The list shows a part of the results.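 Further: peak tail current of the secondary pulse compared with the same well before compound.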", "data": [{"biological_target": "human ether-à-go-go-related gene (hERG) potassium channel (human, UniProt Q12809)", "sequence (Q12809 whole entry, looked up)": "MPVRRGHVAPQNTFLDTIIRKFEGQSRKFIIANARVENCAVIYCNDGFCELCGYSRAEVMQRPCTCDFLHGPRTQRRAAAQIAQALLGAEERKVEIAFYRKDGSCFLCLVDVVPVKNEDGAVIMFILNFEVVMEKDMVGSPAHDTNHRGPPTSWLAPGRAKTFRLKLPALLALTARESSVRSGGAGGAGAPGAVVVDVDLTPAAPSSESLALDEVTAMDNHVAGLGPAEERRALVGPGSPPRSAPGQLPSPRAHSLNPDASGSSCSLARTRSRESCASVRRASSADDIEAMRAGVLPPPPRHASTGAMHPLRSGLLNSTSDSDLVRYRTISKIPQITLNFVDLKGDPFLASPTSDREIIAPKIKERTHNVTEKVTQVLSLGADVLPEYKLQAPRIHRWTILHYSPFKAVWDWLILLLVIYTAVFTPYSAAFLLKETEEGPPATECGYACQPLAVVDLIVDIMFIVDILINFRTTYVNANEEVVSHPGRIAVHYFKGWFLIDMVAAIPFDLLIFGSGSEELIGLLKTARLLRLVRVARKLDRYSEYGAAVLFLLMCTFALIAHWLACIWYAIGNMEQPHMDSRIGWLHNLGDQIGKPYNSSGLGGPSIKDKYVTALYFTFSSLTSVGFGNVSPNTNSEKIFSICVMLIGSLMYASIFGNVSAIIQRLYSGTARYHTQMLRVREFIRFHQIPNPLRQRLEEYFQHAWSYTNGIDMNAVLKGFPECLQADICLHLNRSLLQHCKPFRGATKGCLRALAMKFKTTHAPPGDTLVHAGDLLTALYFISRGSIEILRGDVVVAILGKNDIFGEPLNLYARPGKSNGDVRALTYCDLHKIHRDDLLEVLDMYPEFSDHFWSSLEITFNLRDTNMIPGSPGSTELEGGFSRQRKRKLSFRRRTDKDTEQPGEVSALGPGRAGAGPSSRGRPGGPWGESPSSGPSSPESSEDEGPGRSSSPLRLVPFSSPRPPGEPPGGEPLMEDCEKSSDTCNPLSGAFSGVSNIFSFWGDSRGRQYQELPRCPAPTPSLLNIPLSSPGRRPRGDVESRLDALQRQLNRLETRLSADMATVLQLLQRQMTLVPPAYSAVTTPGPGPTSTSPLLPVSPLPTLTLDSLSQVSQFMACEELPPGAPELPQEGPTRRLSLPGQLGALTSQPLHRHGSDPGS", "experiment": "primary screen, population patch clamp on CHO cells stably expressing hERG", "units": {"hERG current change (%, negative = inhibition) at 10uM": "%"}, "values": [{"smiles": "Cc1c(C#N)c(N)nc(Cl)c1C#N", "hERG current change (%, negative = inhibition) at 10uM": 25.9}, {"smiles": "CC1=[N+]([O-])C(C)(C)CC(C)(C)c2ccccc21", "hERG current change (%, negative = inhibition) at 10uM": 4.73}, {"smiles": "COC(=O)c1ccccc1NC(=O)[C@@H]1CCC(=O)N1C1OC(=O)c2c1ccc(OC)c2OC", "note": "(some centres unmarked)", "hERG current change (%, negative = inhibition) at 10uM": 2.55}, {"smiles": "CC1CCCC(C)N1C(=O)c1ccccc1Nc1ccc(SC(F)F)cc1", "note": "(centres unmarked)", "hERG current change (%, negative = inhibition) at 10uM": 11.9}, {"smiles": "COc1ccc(CCNC(=O)[C@H](CCSC)NC(=O)N2CCn3c2nc2ccccc23)cc1OC", "hERG current change (%, negative = inhibition) at 10uM": 8.56}, {"smiles": "CC1(OC(=O)c2cccs2)C(=O)C=C2C=C(c3ccc(C#N)cc3)OC=C2C1=O", "note": "(centres unmarked)", "hERG current change (%, negative = inhibition) at 10uM": 0.00128}, {"smiles": "COC(=O)c1ccccc1NC(=O)CN1CCCCC1", "hERG current change (%, negative = inhibition) at 10uM": 9.99}, {"smiles": "Cc1ccc(-c2cnco2)cc1", "hERG current change (%, negative = inhibition) at 10uM": 11.9}, {"smiles": "O=C(CSC1=NS(=O)(=O)c2ccccc21)Nc1ccccc1", "hERG current change (%, negative = inhibition) at 10uM": 2.45}, {"smiles": "Cc1cc(NC(=O)c2ccco2)ccc1NC(=O)Cc1cccs1", "hERG current change (%, negative = inhibition) at 10uM": -11}, {"smiles": "CCC(Sc1ccc2nnc(CCNS(=O)(=O)c3ccc(OC)cc3)n2n1)C(=O)OC", "note": "(centres unmarked)", "hERG current change (%, negative = inhibition) at 10uM": -10.7}, {"smiles": "COc1ccc(CC(=O)c2ccc(O)cc2O)cc1OC", "hERG current change (%, negative = inhibition) at 10uM": 2}, {"smiles": "O=C(O)c1ccc(F)c(S(=O)(=O)Nc2ccccc2Cl)c1", "hERG current change (%, negative = inhibition) at 10uM": -0.571}, {"smiles": "NC(=O)CC(c1ccccc1)c1ccc2c(c1)OCO2", "note": "(centres unmarked)", "hERG current change (%, negative = inhibition) at 10uM": -0.772}, {"smiles": "O=C(NC(=S)Nc1ncc(Br)cc1Br)c1cncc(Br)c1", "hERG current change (%, negative = inhibition) at 10uM": 15.5}, {"smiles": "COc1ccc(OCCCCc2c(C)n[nH]c2C)cc1.Cl", "hERG current change (%, negative = inhibition) at 10uM": -11.5}, {"smiles": "CCCCN=C1NN=C(c2ccc(C)c(C)c2)CS1", "hERG current change (%, negative = inhibition) at 10uM": 8.1}, {"smiles": "Cc1nn(C)cc1NC(=O)CC12CC3CC(CC(C3)C1)C2", "hERG current change (%, negative = inhibition) at 10uM": -11.8}, {"smiles": "C(=N\\Nc1nn2cnnc2c2ccccc12)/c1ccco1", "hERG current change (%, negative = inhibition) at 10uM": 3.58}, {"smiles": "CCOC(=O)c1ccc(NC(=O)Cn2c(C)nc3c(sc(=S)n3CC)c2=O)cc1", "hERG current change (%, negative = inhibition) at 10uM": 17.5}, {"smiles": "CCNC(=O)OCc1cn(-c2ccccc2)nn1", "hERG current change (%, negative = inhibition) at 10uM": 23.4}, {"smiles": "COc1ccc(CCCc2nnc(SCC(=O)Nc3ncc(C)s3)o2)cc1", "hERG current change (%, negative = inhibition) at 10uM": -1.3}, {"smiles": "CC(=O)c1ccc(N2CC(C)(C)C2=O)cc1", "hERG current change (%, negative = inhibition) at 10uM": 14.4}, {"smiles": "COc1ccccc1C(=O)Nn1c(C2CCC2)nc2ccccc2c1=O", "hERG current change (%, negative = inhibition) at 10uM": 1.56}, {"smiles": "O=C(N/N=C/c1ccc2c(c1)OCO2)C1CC1", "hERG current change (%, negative = inhibition) at 10uM": -3.1}, {"smiles": "CC(=O)c1sc(NS(=O)(=O)c2ccc(C)cc2)nc1-c1ccccc1", "hERG current change (%, negative = inhibition) at 10uM": 7.77}]}]}
